Test results from article PMC4336329 (PLoS ONE, 2015).
Hit rate of the full screen: of about 310,000 compounds, about 14,000 (4.5%) showed an effect of 50% or more. Effects have a minus sign here. The list shows a part of the results.

Target: human ether-à-go-go-related gene (hERG) potassium channel (human, UniProt Q12809)
Assay: primary screen, population patch clamp on CHO cells stably expressing hERG
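Also: peak tail current of the secondary pulse compared with the same well before compound.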

Sequence of human ether-à-go-go-related gene (hERG) potassium channel (Q12809 whole entry, looked up): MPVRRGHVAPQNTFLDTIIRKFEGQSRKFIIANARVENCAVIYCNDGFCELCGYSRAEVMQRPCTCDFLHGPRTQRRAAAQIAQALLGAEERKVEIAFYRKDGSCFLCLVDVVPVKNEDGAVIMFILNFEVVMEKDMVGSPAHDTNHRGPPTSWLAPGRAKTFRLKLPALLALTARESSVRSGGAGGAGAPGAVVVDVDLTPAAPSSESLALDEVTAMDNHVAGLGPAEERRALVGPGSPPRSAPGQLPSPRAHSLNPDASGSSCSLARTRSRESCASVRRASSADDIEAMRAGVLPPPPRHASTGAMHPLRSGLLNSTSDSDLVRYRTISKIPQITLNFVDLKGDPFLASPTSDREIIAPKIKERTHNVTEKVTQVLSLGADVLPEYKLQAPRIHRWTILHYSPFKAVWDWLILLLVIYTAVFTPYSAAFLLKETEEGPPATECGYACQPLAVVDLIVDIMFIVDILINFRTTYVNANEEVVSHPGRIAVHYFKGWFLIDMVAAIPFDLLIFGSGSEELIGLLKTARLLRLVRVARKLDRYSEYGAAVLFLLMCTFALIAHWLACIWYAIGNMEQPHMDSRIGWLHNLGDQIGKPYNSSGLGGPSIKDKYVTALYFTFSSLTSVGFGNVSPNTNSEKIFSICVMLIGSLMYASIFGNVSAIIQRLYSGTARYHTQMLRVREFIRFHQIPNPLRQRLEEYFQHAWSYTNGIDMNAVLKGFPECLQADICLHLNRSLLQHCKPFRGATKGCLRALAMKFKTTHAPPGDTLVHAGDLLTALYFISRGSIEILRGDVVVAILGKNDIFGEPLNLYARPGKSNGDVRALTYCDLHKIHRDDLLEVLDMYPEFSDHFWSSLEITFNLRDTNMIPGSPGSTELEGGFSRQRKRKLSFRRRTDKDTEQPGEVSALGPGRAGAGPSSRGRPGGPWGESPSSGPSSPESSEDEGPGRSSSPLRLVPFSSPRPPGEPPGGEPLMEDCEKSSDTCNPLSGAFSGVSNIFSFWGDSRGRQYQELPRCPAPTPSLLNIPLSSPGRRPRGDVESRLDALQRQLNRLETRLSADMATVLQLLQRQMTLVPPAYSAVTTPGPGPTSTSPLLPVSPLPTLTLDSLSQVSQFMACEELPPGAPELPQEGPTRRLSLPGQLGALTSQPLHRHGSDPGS

Structure (SMILES)	hERG current change (%, negative = inhibition) at 10uM
CCOC(=O)c1cc(-c2csc(COc3ccccc3Cl)n2)on1	-21.1%
O=C(CS(=O)(=O)c1ccccc1)NCc1ccccc1	-19.5%
O=C(C1CCN(Cc2cc(Cl)ccc2O)CC1)N1CCN(Cc2ccccc2)CC1.O=C(O)C(=O)O	-45%
COc1cc(SC)ccc1C(=O)NCCOc1c(C)cc(C)cc1C	-6.52%
COCCNc1nc2nonc2nc1N1C[C@H]2CC[C@H]1C2	0.934%
CCOC(=O)c1cccc(NC(=O)CCNS(=O)(=O)c2cc(Br)cnc2N)c1	18.2%
O=C(O)C1C2CCC(O2)C1C(=O)NCCC1=CCCCC1 (centres unmarked)	3.45%
Cc1ccc(NS(=O)(=O)c2ccc3c(c2)NC(=O)CC(=O)N3)cc1C	23.4%
CN(C(=O)c1ccc(S(=O)(=O)c2cccc(Cl)c2)c([N+](=O)[O-])c1)C1CCCCC1	-20.8%
CC(C)(C)C(=O)NC(=S)N1CCc2ccccc21	-2.06%
CCOc1ccc(OCCSc2nnnn2C2CCCCC2)cc1	-9.13%
O=C(NC1CCCCC1)C(c1ccc(F)cc1)N(Cc1ccco1)C(=O)c1ccccn1 (centres unmarked)	6.46%
CCOc1cc(CNC(C)(C)CO)cc(Br)c1OCc1ccc(Cl)cc1Cl	-12.1%
C=C(C)Cn1c(NCCOC)nc2c1c(=O)[nH]c(=O)n2C	9.81%
COc1ccc(CCC(=O)Nc2cc(S(=O)(=O)N3CCCCC3)ccc2N(C)C)cc1	-27.8%
Cc1ccc(Nc2nc(-c3cccnc3)cs2)cc1C	24.1%
CCOC(=O)/C=C/S(=O)(=O)c1ccc(NC(C)=O)cc1	0.279%
CC1(C)NC(=O)N(CC(O)CNC23CC4CC(CC(C4)C2)C3)C1=O (centres unmarked)	8.37%
CCOC(=O)NC(=O)COC(=O)CNC(=O)c1ccc(OCC)c(OCC)c1	8.47%
Cc1[nH]c2ccccc2c1C(=O)C(=O)N1CCN(c2ccccc2F)CC1	-18.3%
COc1cc2nc(C3CCC3)n(NC(=O)C3CCC3)c(=O)c2cc1OC	13.2%
CC(C)NS(=O)(=O)c1ccc(OCC(=O)N2CCc3ccccc3C2)cc1	9.49%

Structure (SMILES)	hERG current change (%, negative = inhibition) at 10uM
O=C(CN1C(=O)C2C3CCC(C3)C2C1=O)OCC(=O)c1ccc(Br)cc1 (centres unmarked)	-16.5%
CCCNC(=O)CSc1nccn1Cc1ccco1	0.203%
Cc1ccc(C(=O)NC(C)c2ccc(-n3ccnc3)cc2)cc1 (centres unmarked)	-54%
COc1cc(-c2nnc(NC(=O)CS(=O)(=O)c3ccc(C)cc3)o2)cc(OC)c1OC	22.2%
CCOC(=O)Cn1cnc2c(nnn2-c2cccc(Cl)c2)c1=O	-15.2%
Cc1ccc(-c2nnn(CC(=O)N3CCCc4ccccc43)n2)cc1	-16.7%
CN(C)NC1CCS(=O)(=O)C1.Cl (centres unmarked)	18.7%
COc1ccc(S(=O)(=O)N(C)CC(=O)Nc2ccc3c(c2)OCCO3)cc1	3.73%
Cc1nnc(SCC(=O)N2CCC(C(N)=O)CC2)s1	13.5%
CCOc1ccc(N2CC(C(=O)Nc3cc(C)on3)CC2=O)cc1 (centres unmarked)	-28.5%
Clc1ccc(-c2csc(-c3ccncc3)n2)cc1	13.6%
O=C(C1CCN(S(=O)(=O)c2cccnc2)CC1)N1CCN(c2cccc(Cl)c2)CC1	-31.5%
O=C(CN1C(=O)c2ccccc2S1(=O)=O)N1CCc2ccccc2C1	-17.6%
O=C1CC(c2ccccc2Cl)Cc2c1cnn2-c1nc2ccccc2s1 (centres unmarked)	19.7%
O=C(CCNc1ccc(Cc2ccncc2)cc1)c1cccc([N+](=O)[O-])c1	11%
COc1ccc(-n2c(C)cc(C(=O)CN3C(=O)NC4(CCCc5sccc54)C3=O)c2C)cc1 (centres unmarked)	1.95%
O=S(=O)(/N=C(/Nc1ccc(F)cc1F)c1ccc(Cl)cc1)c1ccccc1	-1.17%
O=C1CN(c2nc(-c3ccccc3)c3cc(Br)ccc3n2)c2ccccc2N1	18.9%
Cc1cccc(C2CC(c3ccc(Cl)cc3)Nc3nc(N)nn32)c1 (centres unmarked)	-18.5%
O=C1c2cccc3cccc(c23)N1Cc1cccc(F)c1	17.1%
COc1ccccc1CNC(=O)C1CCC(=O)N(CCCN2CCCC2=O)C1 (centres unmarked)	5.39%
O=C(N=Nc1c(O)[nH]c2ccc([N+](=O)[O-])cc12)c1cc(-c2ccccc2Cl)nc2ccccc12	7.09%
